# Measurements reported in the supplement of paper PMC11417369.
# ± gives the standard deviation of the averaged measurements. The list shows a part of the results.
# System: PfAP2-EXP AP2 domain (GST-tagged)
# Assay: gcPBM binding intensity (ln(normalized median fluorescence intensity)); higher = stronger DNA binding
# Summary of the method: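 Binding intensity values are the highest Masliner-normalised natural-log median intensity among replicate spots of either probe orientation. The binding step lasted 1 h in 1× PBS with 1% milk, 0.2 mg/ml BSA, 0.5% salmon testes DNA and 0.03% Triton X-100, using GST-tagged P. falciparum DNA-binding domains expressed in E. coli on an Agilent 4 × 180k array of primer-extended double-stranded 36-bp intergenic genomic probes plus negative controls. Alexa488 anti-GST antibody and a 488 nm scan detected bound protein.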
row,Sequence,gcPBM binding intensity (ln)
1,TGCACGCACAGACACACACACAACTAAAAAATAATG [CACACA_site7250],8.865 ± 0.064
2,ATTTTCTTTTTTAAACGTACACATATTAAATATATA [XGTACX_site7773],8.86 ± 0.41
3,TTTTTATTCCAGTATTCACACACGAATAACCACATA [CACACA_site1897],8.49 ± 0.34
4,AATAAATTCATGAATTGTACGTAATGATAACATGAA [XGTACX_site2591],8.89 ± 0.38
5,TTATAACTTTTCACAAGTACATATATATATGTATAA [XGTACX_site2306],8.45 ± 0.35
6,TTTGGAAAGCGTGATTTTTGACAAACACAAAAAAAA [CACACA_negctrl_site651],8.43 ± 0.47
7,ATATATATGTTTTTATGTACATATTTTTCTCCTTCA [XGTACX_site5899],8.9 ± 0.41
8,AGATGAGAGATATATACACACAATAATACCTATTTA [CACACA_site6542],8.34 ± 0.59
9,ATTATTTTATGAGACATAAAAAAAAAAAAAAAAAAA [CACACA_negctrl_site1067],8.09 ± 0.26
10,TTATATTTATTTAATGAACACACGATATATTATTTT [CACACA_site1601],8.33 ± 0.44
11,TTTTAAAAAAGAAAAAAAAAGGATCAGAGAAATATT [GTGCAC_negctrl_site79],8.59 ± 0.56
12,TTGTAGATATTTATATGTACGAATTTATAAATATAG [XGTACX_site3611],8.38 ± 0.28
13,AAATGTTAATTAAATGCATGTACAAAAGGAGCGAAT [TGCATGCA_site942],9.75 ± 0.45
14,AAAAAAATTAATAATGTGCACTTTTTAGTATTTTTA [GTGCAC_site9744],8.435 ± 0.035
15,TTATTTATCAAAAAATGTACAAAAATATATAAACAA [XGTACX_site940],8.76 ± 0.44
16,TTTGTCAACCAAAATTGTACAAATGTATTCCCAATA [XGTACX_site1350],8.36 ± 0.37
17,AAAAAAAAAAAAAAAGGTACACAAAACGGTATTATT [XGTACX_site7064],8.64 ± 0.43
18,ATACATATTAATATGTGTACACATTTTTATTTTTTT [XGTACX_site930],8.71 ± 0.3
19,AACTCATAGGAGTGTGCACACAAAAAATTAAAAAAA [CACACA_site8996],9.03 ± 0.46
20,TTTTTTTTTTTTGTCACACATATGGAATATATCTAT [CACACA_site5899],8.54 ± 0.54
21,TTTTTTTTTTTTTTTGCACACATTTTAATTATTTTT [CACACA_site341],8.31 ± 0.48
22,CTCAAAAAATATGAACGTACAAAATAAGTAATGACA [XGTACX_site590],8.91 ± 0.48
23,AACTTTAAACCCTGAACACACACAAATACACCCAAA [CACACA_site7971],8.96 ± 0.6

row,Sequence,gcPBM binding intensity (ln)
1,ATAATCCACAAGCACACACACACACCCATATATATA [CACACA_site1268],8.81 ± 0.35
2,TATATATATATATATATATATATATATGTATATATG [XGTACX_negctrl_site242],9.99 ± 0.52
3,CACCAAAATATATGTACATATGATAAATGTGAATAT [GTGCAC_negctrl_site83],8.99 ± 0.58
4,CTTTTCTATTTTTTCGTGCACTATAAATATTTTAAT,9.6 ± 0.23
5,TAACTTTTTTTTTTTTTTTTTTAACTTTTATGTAAT [GTGCAC_negctrl_site156],8.07 ± 0.45
6,TTTTACAATATTTTGTGTACTTATATTATGAGCTTA [XGTACX_site3287],8.68 ± 0.2
7,GTCTATATATTTTAGGTGCAACGTAAATGTAAAAAT,9.01 ± 0.36
8,AAAATTATCGTTATATGTACGCATCTTAATACGTAT [XGTACX_site4063],8.335 ± 0.007
9,ATTATACAAATTGAGGTGCATGAAACAAAATATGAA,9.05 ± 0.28
10,AGCTTGTAACAGTTTACACACTAATATTTATAAATT [CACACA_site6024],8.77 ± 0.47
11,ATATTTTTTTTTTTATGTACTTATTTATAATTATTT [XGTACX_site5279],8.67 ± 0.37
12,CTTATAAGAATACTAGTGCACATAATTTAACGAAAA,9.02 ± 0.16
13,TATATTTATTTATATACACACATAATAAAAAATATA [CACACA_site6527],8.37 ± 0.35
14,TACTTATTGTGATACTTATATTATTTTATGATTAAA [XGTACX_negctrl_site353],8.36 ± 0.39
15,TATTAATGATAAAAAAGTACATTATTATATGATATT [XGTACX_site4235],8.36 ± 0.34
16,TAAGTCATATAAATGTGTACATAAAAAAAAAAAATG [XGTACX_site1645],8.67 ± 0.4
17,TTTTTTTTTTTTTTTTCACACATTGTACTTTTTTAT [CACACA_site5193],8.48 ± 0.45
18,TCTATCAAATTTGAAGGTACACATTTGAGATAATTA [XGTACX_site3797],8.46 ± 0.35
19,ATCATTTGCATACGCACACACACATAAAAAGAAAAA [CACACA_site355],8.63 ± 0.42
20,AATAATAAATAAATGTGTACTTAAAAATATTATATT [XGTACX_site3005],8.44 ± 0.33
21,CAAAGTATTATGATTACACACATGTGCTTTTTTCTT [CACACA_site163],8.57 ± 0.42
22,TTGTATCATATATTATGTACATATTGATTTATTACC [XGTACX_site12],8.42 ± 0.33
